The other results are listed elsewhere or left out. At the low end of the ranking, values are background and their order means little.
Molecular target: SIX1 homeodomain (reference allele) (UniProt Q15475)
Assay: universal protein binding microarray
Details: Universal all-10-mer PBM (8x60K, AMADID 030236), 300 nM GST-tagged protein, Alexa Fluor 488 anti-GST; buffer, salt, pH and temperature not stated; high values mean tight binding; most listed sequences are background and not binding sites; double strand, one strand shown

Row | Sequence | binding signal [E-score]
1 | GAGCTGCC | -0.0769
2 | CTATAAGA | -0.0489
3 | AGATCCGA | 0.276
4 | TCTGCCAA | -0.124
5 | ATTGTAAG | -0.0522
6 | ATGTCGAG | -0.182
7 | AGTCAAAC | -0.0826
8 | AAATCTGC | -0.112
9 | CAATCACG | -0.114
10 | CCCGGTCC | -0.205
11 | ACGATGTA | 0.0972
12 | ACTAAGAA | -0.0853
13 | CGGTAATC | 0.103
14 | CCAATTCG | -0.0862
15 | CAGTAAGC | -0.101
16 | GGGAGTGA | 0.0303
17 | TTATCCAA | 0.0728
18 | AGTGAAGA | 0.0921
19 | CTCACGGA | 0.0186
20 | CAGTGTTA | 0.0401
21 | AGCAAGCG | -0.0977
22 | GCCTCTGA | -0.111

Row | Sequence | binding signal [E-score]
23 | CGAAGCTC | -0.102
24 | CTTTAGGC | 0.00728
25 | AATCTTAT | 0.0451
26 | AGGTCAAT | -0.128
27 | CAACCTTG | -0.177
28 | AGCAGAGA | -0.0147
29 | ACCGACTG | -0.0812
30 | TACTTCGA | 0.115
31 | ATAGTGAT | 0.32
32 | AATTTCGA | -0.319
33 | ATCCTTTA | 0.187
34 | GCGGCAGA | -0.083
35 | ACCCCTAC | 0.0627
36 | ACGTTTGG | -0.161
37 | ACTCCTCG | -0.136
38 | TAGCAGAA | -0.0157
39 | CCCCGTCC | 0.0472
40 | CACTTGGA | 0.0426
41 | ATCAGTCC | 0.111
42 | AGTGGGTA | 0.135
43 | ACAGCGCA | -0.126
44 | AATACTAA | 0.0861

Row | Sequence | binding signal [E-score]
45 | ATCTATAG | 0.163
46 | AGGCGAGA | -0.129
47 | CACTGATC | 0.284
48 | GACGGTGC | -0.00636
49 | GTAACTTA | -0.124
50 | CCTCGGAG | -0.0564
51 | ATTTGCCA | -0.156
52 | GATGAACA | -0.222
53 | AGTGCGAT | 0.196
54 | AATCATAT | 0.178
55 | ATTCCCGC | -0.0675
56 | ATCTAGAT | 0.26
57 | CGCAGTAG | 0.0859
58 | CGCGCCCG | -0.0466
59 | AAGGCTTA | -0.179
60 | AATCTCCG | 0.0694
61 | GGCCGTTA | -0.0938
62 | GACGGTCA | -0.302
63 | CGGATTCA | 0.0989
64 | GAGTCTAA | -0.275
65 | ACTTACGA | -0.0251
66 | CGAAAGAG | -0.184

Row | Sequence | binding signal [E-score]
67 | ACGCCATG | 0.0292
68 | CCGAATCG | 0.0462
69 | CTCACCTA | 0.00877
70 | AATGAGAT | 0.278
71 | AACGTTCA | -0.392
72 | ACAAGTCC | -0.275
73 | CTTGGGAC | -0.199
74 | CAAGCGCC | -0.326
75 | AAAAATAA | -0.0193
76 | ATGATCCG | 0.452
77 | GGTGTATA | 0.372
78 | ACCGCCCA | 0.0623
79 | ACATCTTC | 0.00635
80 | ACTGAATC | -0.246
81 | ATCAAGCG | 0.228
82 | AATAACGC | -0.209
83 | GTCATGCA | -0.0685
84 | CTTCGCTA | -0.0154
85 | GTGACTCA | -0.215
86 | CGGCATGC | -0.0598
